The other results are listed elsewhere or left out. Single values are uncertain, as repeats are few or missing.

Test in all cases: cell count relative to DMSO control; melanoma cells; higher = more viable cells
Holding throughout (settings): library dose: standard library concentration; 72 h

Assay [1] relates to SkMel28.
The test system of assay [2] is SkMel2.
Assay [3] concerns SkMel30.
Assay [4] relates to SkMel5.
In assay [5] the test system is UACC257.
In assay [6] the test system is UACC62.
Assay [7] relates to WM115.
The test system of assay [8] is WM1716.
Assay [9] has as its system WM3526.
The test system of assay [10] is WM1745.
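Further: cells treated in 1,536-well plates, then fixed and DAPI-stained, with nuclei counted from automated high-throughput microscope images.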

Regarding `CC(C)C[C@H](NC(=O)[C@H](Cc1ccccc1)NC(=O)c1cnccn1)B(O)O` [Bortezomib] + Cn1cc(/C=C2\C(=O)Nc3cccnc32)c2ccccc21 [GW441756] (first compound 0.005 µM, partner dose 2 µM), the cell count in assay [1] was 27%; in [2], 22.6%; in [3], 22.6%; in assay [4], 17.1%; in [5] it was 53.8%; in [6], 44.6%. Besides, the cell count in assay [7] is 21.1%; in assay [8], 16.2%; in assay [9], 21%.
`Cn1c(=O)n(-c2ccc(C(C)(C)C#N)cc2)c2c3cc(-c4cnc5ccccc5c4)ccc3ncc21` + COc1ccc2c(c1)CCC1C2CCC2(C)C(NCCCCCCN3C(=O)C=CC3=O)CCC12 [U73122] (first compound 0.02 µM, partner dose 2 µM): the cell count in assay [1] was determined as 61.1%; in [2], 76.6%; in assay [3] it was 88.8%; in [4] it was 64.4%; in assay [5], 93.2%; in [6], 77.3%. The cell count in [7] is 100%; in [8], 72.9%; in [9] it was 81.2%.
On to `Cc1cn(-c2cc(NC(=O)c3ccc(C)c(Nc4nccc(-c5cccnc5)n4)c3)cc(C(F)(F)F)c2)cn1` [nilotinib] + COc1cc2ncnc(Nc3ccc(Oc4ccccc4)cc3)c2cc1OC [SrcI1] (first compound 1 µM, partner dose 10 µM), for which the cell count was determined as 56.7% in assay [1]; 82.2% in [2]; 80.1% in assay [3]; 45.6% in assay [4]; 90.5% in assay [5]; 65.3% in assay [6]. Moreover, the figures for the cell count in assay [7], in assay [8] and in assay [9] were 62.9%, 71.3% and 65.7%, respectively.
`Cn1c(=O)n(-c2ccc(C(C)(C)C#N)cc2)c2c3cc(-c4cnc5ccccc5c4)ccc3ncc21` + CN(NC(=O)CC(=O)NN(C)C(=S)c1ccccc1)C(=S)c1ccccc1 [STA4783] (first compound 0.02 µM, partner dose 0.03 µM): the cell count amounted to 51.2% in assay [1]; 55.2% in assay [3]; 47.1% in assay [4]; 79.5% in assay [5]; 40.7% in assay [6]; 15.8% in assay [7]. In addition, the figures for the cell count in assay [8], in assay [10] and in assay [9] were 51.6%, 33.1% and 66.9%, respectively.
Regarding `Cc1cc(Nc2cc(N3CCN(C)CC3)nc(/C=C/c3ccccc3)n2)n[nH]1` + CCc1ccc(CCOc2ccc(CC3SC(=O)NC3=O)cc2)nc1 [pioglitazone] (first compound 0.2 µM, partner dose 10 µM), the cell count in assay [1] stood at 43.2%; in [2], 82.8%; in assay [3], 81.4%; in [4] it was 79.7%; in assay [5] it was 93.1%; in assay [6] it was 80.9%. The values for the cell count in [7], in assay [8] and in assay [9] were 67.7%, 80.3% and 90.4%, respectively.
With `Cc1cc(Nc2cc(N3CCN(C)CC3)nc(/C=C/c3ccccc3)n2)n[nH]1` + O=C(O)C(=O)Nc1sc2c(c1C(=O)O)CCNC2 [TCS401] (first compound 0.2 µM, partner dose 8.33333 µM), the cell count in assay [1] worked out at 76.3%; in assay [2], 90.3%; in [3] it was 116%; in [4] it was 66.4%; in assay [5], 83.5%; in assay [6], 87.6%. The cell count in [7] was 76%; in [8] it was 93.3%; in [9] it was 84.2%.
On to `CC(C)C[C@H](NC(=O)[C@H](Cc1ccccc1)NC(=O)c1cnccn1)B(O)O` [Bortezomib] + COc1ccc2c(c1)CCC1C2CCC2(C)C(NCCCCCCN3C(=O)C=CC3=O)CCC12 [U73122] (first compound 0.005 µM, partner dose 2 µM), for which the cell count in [1] worked out at 71.2%; in assay [2], 82.5%; in [3], 32.7%; in [4], 32.3%; in [5], 68.4%; in assay [6] it was 68.7%. Further, the cell count was found to be 37% in assay [7], 13.7% in assay [8] and 28.8% in assay [9].
Consider `Cc1cc(Nc2cc(N3CCN(C)CC3)nc(/C=C/c3ccccc3)n2)n[nH]1` + O=c1cc(-c2cccc3c2Sc2ccccc2S3)oc(N2CCOCC2)c1 [KU55933] (first compound 0.2 µM, partner dose 5 µM), for which the cell count in assay [1] worked out at 61.9%; in assay [2], 83.4%; in assay [3], 101%; in assay [4], 92.4%; in assay [5], 93.4%; in assay [6] it was 77.5%. The cell count turned out to be 82.1% in assay [7], 83.4% in assay [8] and 64.7% in assay [9].
Consider `CC(C)C[C@H](NC(=O)[C@H](Cc1ccccc1)NC(=O)c1cnccn1)B(O)O` [Bortezomib] + Cn1cncc1[C@@](N)(c1ccc(Cl)cc1)c1ccc2c(c1)c(-c1cccc(Cl)c1)cc(=O)n2C [tipifarnib] (first compound 0.005 µM, partner dose 0.05 µM), for which the cell count in assay [1] is 27.5%; in assay [3], 39.2%; in [4], 28.5%; in assay [5], 73.9%; in [6], 60.9%; in assay [7], 18.9%. In addition, the cell count in [8] turned out to be 11.6%; in assay [10] it was 13%; in assay [9], 28.4%.
As for `Cn1c(=O)n(-c2ccc(C(C)(C)C#N)cc2)c2c3cc(-c4cnc5ccccc5c4)ccc3ncc21` + Oc1nc(-c2ccc(C(F)(F)F)cc2)nc2c1CSCC2 [XAV939] (first compound 0.02 µM, partner dose 10 µM), the cell count in assay [1] is 43.9%; in [2] it was 72.2%; in [3] it was 83.1%; in assay [4], 65.3%; in assay [5], 76.4%; in [6], 60.1%. In addition, the figures for the cell count in [7], in assay [8] and in assay [9] were 67.7%, 37.4% and 87%, respectively.
`Cc1cn(-c2cc(NC(=O)c3ccc(C)c(Nc4nccc(-c5cccnc5)n4)c3)cc(C(F)(F)F)c2)cn1` [nilotinib] + O=S(=O)(c1ccccc1)N(CC(F)(F)F)c1ccc(C(O)(C(F)(F)F)C(F)(F)F)cc1 [T0901317] (first compound 1 µM, partner dose 7 µM): the cell count was determined as 85.2% in [2]; 88.3% in assay [3]; 62.9% in assay [4]; 73.2% in [5]; 73.6% in [6]; 79.8% in assay [7]. For the same compound, the figures for the cell count in assay [8] and in assay [9] were 103% and 65.6%, respectively.
Take `CC(C)C[C@H](NC(=O)[C@H](Cc1ccccc1)NC(=O)c1cnccn1)B(O)O` [Bortezomib] + O=c1cc(-c2cccc3c2Sc2ccccc2S3)oc(N2CCOCC2)c1 [KU55933] (first compound 0.005 µM, partner dose 5 µM): the cell count in assay [1] was determined as 23.4%; in assay [2], 23.4%; in assay [3], 30.7%; in assay [4], 24.9%; in assay [5], 85.2%; in assay [6], 48.9%. Moreover, the values for the cell count in assay [7], in assay [8] and in assay [9] were 13.5%, 13.1% and 17%, respectively.

Source of the values: the supplement of paper PMC4604168 (melanoma cell lines).
